± gives the standard deviation. This is a selection; strong and weak results do not stand in their true shares.

These results are taken from the supplement of paper PMC10338343.
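Also: 1 nM active piRISC with 0.1 nM target library at 33 °C single turnover.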

The experiment concerns MIWI (PIWIL1) piRISC loaded with piRNA #1 (30 nt). Briefly: pre-steady-state target cleavage rate (min^-1); MIWI and MILI are mouse PIWI proteins and EfPiwi is from a freshwater sponge; tags in brackets are library labels; higher = faster piRNA-guided slicing of the target. The following applies: guide: piRNA #1 5'p-UGAGGUAGUAGGUUGUAUAGUAUCCAGAGG; auxiliary factor: 500 nM mouse GTSF1. An outline of the steps: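 In this Cleave-'n-Seq assay, uncleaved targets were sequenced and normalised to depth and to weakly complementary targets. They came from a transcribed, DNA-blocked target RNA library […] mixed with 1 nM active affinity-purified piRISC carrying one synthetic guide, with or without 500 nM GTSF1 partner protein, in HEPES–potassium acetate buffer at 33 °C for 0–8 or 0–960 min. After three trials were pooled and k3 was capped at 0.0001 min^-1, the pre-steady-state cleavage rate was obtained from a burst-and-steady-state fit.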
GGAGACCUAUCUAUAGAACCUACUACGUCA: the “pre-steady-state target cleavage rate” value turned out to be 0.342 ± 0.05. Consider CCUGUGGAUACUAUACAAGCUACUACCUCA, for which the “pre-steady-state target cleavage rate” value worked out at 0.963 ± 0.039. The value for GCUCUGGAUACUAAUACAACCUACUACCUCA was 1.49 ± 0.09; that for GGAGAGGAUACUAUUCAACCAACUACCUCA was 0.0896 ± 0.007; that for GGAGACCAUACUAUACAAGGUACUACCUCA was 0.133 ± 0.013. Turning to GGAGUGGAUCCUAUACAACCUACUACCUCA, the “pre-steady-state target cleavage rate” value turned out to be 1.8 ± 0.16. In the case of “GGAGACCUAUGAUUACAACCAUGAUGGAGA [g11:g17:cont:t1A]”, the “pre-steady-state target cleavage rate” value was below 0.0001. Regarding CCUCACCAUACUAUACAACCUACUACCUCA, the “pre-steady-state target cleavage rate” value stood at 2.03 ± 0.12. On to CCUCUGGAUACUAUACAUCCUAGUACCUCA, for which the “pre-steady-state target cleavage rate” value turned out to be 0.194 ± 0.031.

For the sequence GGACUCGAUACUUUACAACCUACUACCUCA, the “pre-steady-state target cleavage rate” value came to 1.57 ± 0.14.

For the sequence GGAGACCUUACUUUACAACCUACUUCCUCA, the “pre-steady-state target cleavage rate” value was determined as 0.0759 ± 0.013.

As for GCUCUGGUUACUAAACAACCUACUACCUCA, the “pre-steady-state target cleavage rate” value came out at 1.84 ± 0.11. With GGAGACGAUAGUAUACAACCUAGUACCUCA, the “pre-steady-state target cleavage rate” value worked out at 0.397 ± 0.046. The value for GGAGACGAUACUAUACAACCAUGUACCUCA was 0.00871 ± 0.0024; that for GGAGACCUUUCUAUACAACCUACUUCCUCA was 0.142 ± 0.018; that for GCUCUGCUUACUAUACAACCUACUACCUCA was 1.96 ± 0.12. The value for GCUCUGGAUACUAUACAAGCCUACUACCUCA was 0.0047 ± 0.0043; that for GGAGACCUUACUAUACAUCCUACUACCACA was 0.745 ± 0.05; that for GGAGUGGAUACUAUACAUCCUACAACCUCA was 0.674 ± 0.061. To GGACUGGAUACUAUACAACCUACAACCUCA belongs 0.267 ± 0.034; to “GGAGACCUAUCUAUACAACCUACUUGGAGA [g7:g20:cont:t1A]”, 0.0168 ± 0.0052.

Take CCUCUGGAUACUAUACAACUCUACUACCUCA: the “pre-steady-state target cleavage rate” value came out at 0.0034 ± 0.0033.

Take GGAGAGGAUACUAUACAACCAACUACCUCA: the “pre-steady-state target cleavage rate” value was found to be 0.133 ± 0.011.

For GCUCUGGAUACUAUACAUCCUACUACCUCA, the “pre-steady-state target cleavage rate” value amounted to 1.67 ± 0.091. To GGAGAGGAUACUAUACAACCUACUAUCCUCA belongs 0.152 ± 0.028; to GGAGACCUAUGAUAAGAACCUACUACCUGA, below 0.0001; to GGAGACCAUAGUAUACAACGUACUACCUCA, 0.179 ± 0.032.

For CCUCUGGAUACUAUACAACCUACUUCGUCA, the “pre-steady-state target cleavage rate” value is 0.551 ± 0.05. To GGAGACGAUACUAUACAUGGUACUACCUCA belongs 0.0284 ± 0.0053.

As for GGAGACGAUACUAUACAACCUACUAGGUCA, the “pre-steady-state target cleavage rate” value turned out to be 0.00566 ± 0.0033. The value for GGAGACCUAACUAUACAUCCUACUACCUCA was 0.712 ± 0.07; that for GGAGACCAUACUAUACAAGCUACUACCACA was 1.26 ± 0.055; that for GGUCUGGAUACUAUUCUACCUACUACCUCA was 1.14 ± 0.11. With GGACUGGAUAGUUUACAACCUACUACCUCA, the “pre-steady-state target cleavage rate” value amounted to 0.624 ± 0.066.

For CCUCUGGAUACUUUACAUCCUACUACCUCA, the “pre-steady-state target cleavage rate” value came to 1.67 ± 0.11.

With GGAGUGGAUACAAUACAACCUACUUCCUCA, the “pre-steady-state target cleavage rate” value turned out to be 0.0692 ± 0.02. Take GGACUGGUUACAAUACAACCUACUACCUCA: the “pre-steady-state target cleavage rate” value worked out at 1.05 ± 0.13. Turning to GGAGACCUAAGUAAACAACCUACUACCUCA, the “pre-steady-state target cleavage rate” value worked out at 0.00387 ± 0.0035.

Consider GGAGUGGAUACUAUAGAACCUUCUACCUCA, for which the “pre-steady-state target cleavage rate” value is 0.0669 ± 0.01. The value for GGAGACGAUACUAUACAACCUACAAGCUCA was 0.219 ± 0.049.
